The source gives no read counts; variants with many changes may rest on few reads.
B1: LINE1-mini (parent)
chain: GGCAGAGCUCAACACAGCGUGGCAAAGUGGCUGUGGCUAGACUGCC

Variants of: B1
Test: self-cleavage, relative activity (ratio to wild type); higher = more cleavage; in vitro, sequencing; the parent is a self-cleaving ribozyme

Variant | self-cleavage
A6G C31U U38A C46A | 0.01
A6G C18U A24G G30C G40U G44C | 0.02
A6G A11C U34G | 0.03
A6C G33U G36C C45A | 0.01
A6G A14U C45U | 0.05
A6G A14C C37G C46U | 0.02
A6C G27U U43C | 0.06
A6C U9A G21C C46G | 0.17
A6C G29U A39C G40A | 0.18
A6G C10G U20G U34C | 0.02
A6G G7A C18A G19C U38C | 0.17
A6G A25U G27U G29A A41G C45A | 0.04
A6C G35U A39G | 0.24
A6G G7C A11C C13G G29U C42A | 0.01
A6G G17A G21C | 0.08
A6G C10A G21U A26G G44U | 0.01
A6G G7C C23G U28C G30U U32G | 0.03
A6G A25C U38A G44C | 0.06
A6G A26G G33C U43C | 0.02
A6G C13U G17U G22C G44U C45U | 0.06
A6G A24U A41C C42U | 0.19
A6C U9C G30A C31A | 0.03
A6C U9G C18G U20A | 0.17
A6C U9A C10U | 0.03

Variant | self-cleavage
A6G A12G A14U | 0.02
A6G G7C C31U A41U | 0.06
A6C G33A C37A | 0.1
A6G C15A G27U | 0.03
A6G A24U A41C | 0.06
A6G C13U G21A G40C | 0.1
A6G A12G A41U C46U | 0
A6G G19A A24C G40C G44U | 0.03
A6G C31A U34G G44A | 0.05
A6G C10A U20A | 0.03
A6G G21A G40U | 0.13
A6G G21C A24C | 0.01
A6G A16C C18G A41U | 0.02
A6G G17A A25U | 0.03
A6G C13U G21A C31G | 0.01
A6G A14U C31U A41C C45A | 0.01
A6G A16C G30C U38G | 0
A6G C8A A11C A12C A24U | 0.02
A6C U43C C45A | 0.04
A6G C15A A26U | 0.01
A6G C15G G17U G19C G22C C23G G29U A39C U43C | 0.02
A6G C15A C18U U34C U43G C46A | 0.02
A6C U34A U38A | 0.02
A6C U20A G44A | 0.06

Variant | self-cleavage
A6G A11G A25G G36A | 0.03
A6G A11C C13A G40U U43C | 0.01
A6G G17U A26U | 0.06
A6C U9A G35C A39U | 0.02
A6C U9G U32A C46A | 0.05
A6G C10G C46U | 0.05
A6G C10A C37G | 0
A6G C10A A26U | 0.01
A6G C31U G33C G36A A39G | 0.06
A6C U20G G27C | 0.52
A6G A12G G22U | 0.01
A6G A12G G22C | 0.02
A6G C23U U38A C42A C45G | 0.11
A6C U32A U34G | 0
A6G A14G A16G | 0
A6C G30U G33A | 0.08
A6G C8G C10A A12C G30U A39C | 0.01
A6G G17A A26C A39G | 0.01
A6G G19A A25G | 0.03
A6G C18A C31G A41C | 0.04
A6G G19U G27U | 0.01
A6G C18U C46A | 0.16
A6G C8U G29C | 0.06
A6G C18U G29A G30A | 0.17

Variant | self-cleavage
A6G C15U G22C C37G C45A | 0.04
A6G C15G G29U C31A | 0.02
A6C G29C G30C U32A | 0.02
A6G C23U A25U G35U G44A | 0.07
A6G A12U G35C | 0
A6C G30A C42U G44C | 0.04
A6G G22A C37A | 0.08
A6G A26G C31A G44U C46G | 0.06
A6G C18A G19U U43C | 0.03
A6G A11U G29U A39C | 0.01
A6G C31A G35U C42G | 0.02
A6G A25U G29C U32A G35A C46A | 0.05
A6G G7U U9C C10A | 0.04
A6C G33C G36C | 0.1
A6G C13A A41G | 0.03
A6C U9G G19C G27A | 0.06
A6G A11C C13G | 0.02
A6G G17A U28C A39C | 0.02
A6C U28C G30A | 0.2
A6G C8A G22A | 0.19
A6G A25C C37G A39C | 0.08
A6G C13A G30U G33U | 0.04
A6G A11G G30C G35A | 0.01
A6G A16G A25U | 0.07

Variant | self-cleavage
A6G G7A A24G C42G | 0.02
A6G C13U U20C A26U | 0.02
A6G C10A G17A A41C | 0.04
A6C U28A U38G | 0.01
A6G C8U A16U G17U A24U U34A G40A C45G | 0
A6G C18G A25U C45U | 0.06
A6G C8G U9C C10A C42G | 0.02
A6G A12C G17A U32G A41C | 0
A6G C8U C13G C31U G35A | 0.17
A6G C18G A24G A26U | 0.02
A6C G40U C45A | 0.04
A6C U32C A39U | 0.08
A6C G29U U38G | 0.06
A6G A26U C45G | 0.15
A6G C13U C18G G35C | 0.14
A6C U9A A14U C46U | 0.04
A6G A16C U20G C31A C42A | 0
A6G G7C C45A | 0.29
A6G A11C C13A U34A | 0.01
A6G C10A G29U G33A A41C | 0.01
A6G C8U G17U C46U | 0.05
A6G C10U U28C G36A | 0.03
A6G C23A G44U | 0.12
A6G G22A A25C G27A G40A | 0.05

Variant | self-cleavage
A6C U9G C13G G35U | 0.04
A6G C8U A25G A26G C31A G33A U34A C37A | 0.02
A6C U9C G27C C46G | 0.03
A6G C10G G30C C31U G44C | 0.01
A6C U20G C46A | 0.05
A6G A16C G27U C42A | 0.06
A6G A12C G30A G44A | 0.16
A6G G21U C31A | 0.01
A6G C18A G29U G35A A39U C45U | 0.05
A6C U9G G40C | 0.1
A6G C15A U20A G33U | 0.02
A6G G17U C23U | 0.03
A6G A16G G36C C46G | 0.03
A6G C10U C18A U34A | 0.03
A6G C8A A14G | 0.64
A6G C8U G22A C23A C42U | 0.06
A6G C8G G21U U34G G35U G40U C42U | 0.02
A6G C10A C13G C31A | 0.03
A6G C18G G33C A41U | 0.08
A6G C13A A16C G40A | 0.06
A6G G7C G22A G33C G35A | 0.06
A6G C13U G40U | 0.01
A6C G35U C37A G40A | 0.07
A6G C13G G29U G40U | 0.12

Variant | self-cleavage
A6G C23A C37U | 0.01
A6G G7C C8A G30A | 1.05
A6C U28A A41C | 0.05
A6G G17A C31G | 0.02
A6G C8A A16U G27U | 0.03
A6G C10A G22C C42A C45A | 0.01
A6G C13A A26C G44U C45G | 0.09
A6G G17A G22U G29U C46A | 0.01
A6G G19U C23U G33A | 0.06
A6G G7C U9C C37A G40U A41C | 0.04
A6C G27C G35A C46A | 0.09
A6G A11U G19U C37G | 0
A6G C15U G33A | 0.23
A6G C18G G29U C37U | 0.07
A6G G21C G40C A41C | 0.05
A6G G17C C45A | 0.1
A6G A16C G27U | 0.12
A6G G7A U20C U38G | 0.01
A6C G33A G36U | 0.03
A6G C18U C37U | 0.02
A6G C8U U9A C18A A41C C42U U43A | 0.04
A6G C10U G30A C42G | 0.07
A6G G19A A26C A41C | 0.05
